According to the RNAGym collection of RNA variant scans (doi:10.7554/elife.90254):
The source gives no read counts; variants with many changes may rest on few reads.

B1: OR4K15 (parent)
chain: GUUAACGGUCAUAGGCCAUGGAAACUAGGAGCACCAUUUCGCUGCCAGUGAAGAAAUGAACAAAGAAAAUCUGGGCCAGGCAGGCAUCAAAAGAAAUAGUCUUGCGCUCAACCAGAAAGUCUGUAAUCAUUUUAAGGGUA

Variants of: B1
Test: self-cleavage, relative activity (ratio to wild type); higher = more cleavage; in vitro, sequencing; the parent is a self-cleaving ribozyme
Work on A66G C109A A118G U120C yielded a self-cleavage of 0.12. Work on A64U A67G G75C A94G yielded a self-cleavage of 0.09. Work on A63G A114U U130C yielded a self-cleavage of 0.03. For A64G A126G U127A U130C, the self-cleavage was 0.32. Work on A60G A129G U131C U133G yielded a self-cleavage of 0.48. For A62G A68G U102C U122C, the self-cleavage was 1.51. With A62G A66U A86U A110C the self-cleavage was 0.52. For A62G A82G A135U, the self-cleavage was 0.31. A63G A64C A126G showed a self-cleavage of 1.04. Variant A66G U72A G123A has a self-cleavage of 0.39. Variant A60G U103C U122C has a self-cleavage of 0.61. A60G U70A U87A gave a self-cleavage of 0.8. Variant A63G A67G A140U has a self-cleavage of 1.41. Work on A64G A78G A91G A118G yielded a self-cleavage of 0.09. Work on A66G U70A A96G yielded a self-cleavage of 1.61. In the case of A64G A66G A90U U100C A116G, the self-cleavage is reported as 1.94. Work on A60U A89U U120C yielded a self-cleavage of 0.73. Work on A60G A86U A95U yielded a self-cleavage of 0.24. Work on A64G U70C U87C C105U A110G yielded a self-cleavage of 0.01. A60G U130C A135G gave a self-cleavage of 0.76. C61U A66G A90G showed a self-cleavage of 1.78. Work on A67G A92G U100C yielded a self-cleavage of 2.55. With A66G A67G A78U the self-cleavage was 0.54. Work on A60G A66G G99A yielded a self-cleavage of 0.54. Variant A66G A67G C71A has a self-cleavage of 0.32. A67C A117G U120C gave a self-cleavage of 0.44. In the case of A66G U70C U72C A98G C128A, the self-cleavage is reported as 0.04. Variant A60G A94G U97C has a self-cleavage of 0.55. A66G A67G A114G showed a self-cleavage of 0.35. In the case of A63G U70C A98U, the self-cleavage is reported as 1.37. With A64G A69G U133A the self-cleavage was 1.42. A63G C105G A111G gave a self-cleavage of 0.03. For A60G A66G A94G U108C U132A, the self-cleavage was 0.01. With A62G A96G U97C the self-cleavage was 0.47. A62G A64G A68G A86G U127C U130C G137A gave a self-cleavage of 0.49. With A60G U72A A82G A117G the self-cleavage was 0.21. In the case of A60G A94G G136C, the self-cleavage is reported as 1.41. In the case of A62G C76U U108C, the self-cleavage is reported as 0.03. A60G A69U A125U showed a self-cleavage of 2.15. Variant A60G A78G G83A has a self-cleavage of 0.26. Work on A63G A67G U139C yielded a self-cleavage of 1.71. Variant A66G A95G U130C has a self-cleavage of 2.09. With A64G A96G A129G the self-cleavage was 1.33. Work on A64G A94G U102C A116G yielded a self-cleavage of 1.79. A60U U72C A129U U139C showed a self-cleavage of 0.1. For A62G A66G U120C, the self-cleavage was 1.56. A64G A95G A111G gave a self-cleavage of 0.03. Variant A60U A116G U122C has a self-cleavage of 0.8. With A62G A67G U97C the self-cleavage was 1.14. Variant A66G A89G U102C A117G has a self-cleavage of 2.77. A66C A67C U120A U122C U132C showed a self-cleavage of 0.62. Variant A63G A86U U130C has a self-cleavage of 1.76. With A60G A95G U103G A118G U139A the self-cleavage was 0.05. A66U A82G A92G gave a self-cleavage of 0.42. A66G A86G A89U showed a self-cleavage of 2.28. Variant A60U A68G A114G A125G has a self-cleavage of 0.34. In the case of A63G A110G A111G G136U, the self-cleavage is reported as 0.02. With A63G U72A U130C U133C the self-cleavage was 0.2. Variant A60G A68G U100C A117G has a self-cleavage of 1.92. For C61U A82U A92G U100C, the self-cleavage was 0.29. Work on A67G A82C A95G yielded a self-cleavage of 0.19. In the case of A62G A78U A89G U124C, the self-cleavage is reported as 0.26. A60U A67G A91U U100C showed a self-cleavage of 1.28. A64U A67G A82G A86G U130C gave a self-cleavage of 0.09. Work on A60G A92G U139A yielded a self-cleavage of 1.01. Work on A67G A69G U87C yielded a self-cleavage of 1.27. In the case of A63G A90G A95G A117G, the self-cleavage is reported as 2.88. A67G A69G A95G A110U A126G gave a self-cleavage of 1.06. A66G A94G U103C gave a self-cleavage of 1.26. In the case of A64G G123U U131C, the self-cleavage is reported as 2.69. For A60G A89U U102C, the self-cleavage was 1.7. Work on A60G U72C A82U A89U yielded a self-cleavage of 0.13. In the case of A64G U97C C105U, the self-cleavage is reported as 0.01. Variant A62G A82G A117G has a self-cleavage of 0.3. A66U A69U A89G showed a self-cleavage of 1.14. Variant A67G A69G U97A U108C has a self-cleavage of 0.02. Variant A63U U108C A111G has a self-cleavage of 0. For A62C A82U A111G, the self-cleavage was 0. With A60G G106C A126U U127A U131C A135G the self-cleavage was 0. A64G A92G A94G U100C showed a self-cleavage of 1.3. A66G A82G A92G gave a self-cleavage of 0.51. For A64U A82G U120A A126G U130G, the self-cleavage was 0.13. In the case of A60G G74A U132C, the self-cleavage is reported as 0.12. For A66U A78C A92U U122C, the self-cleavage was 0.18. A66U A96G A110G U122A showed a self-cleavage of 0.16. For A62C U102C U120A, the self-cleavage was 2.74. In the case of A66U A68G A86G, the self-cleavage is reported as 1.27. A66G G84C A114U gave a self-cleavage of 0.02. For A66G A95G A96G, the self-cleavage was 0.58. With A66G A110G A126U the self-cleavage was 0.12. Work on A60U A116G U139C A140U yielded a self-cleavage of 0.9. In the case of A64G A91U A126G, the self-cleavage is reported as 1.52. In the case of A62G A82U A98G A118G U131C, the self-cleavage is reported as 0. A62G A66G A111G showed a self-cleavage of 0.01. For A64G A68G U102G, the self-cleavage was 0.32. A63G A78U U131C showed a self-cleavage of 0.22. For A60G A82G U131C U132G, the self-cleavage was 0.07. For A63G A78U U102C, the self-cleavage was 1.18. Variant A63U A68G U122C has a self-cleavage of 0.99. Variant A60U U87C A114G has a self-cleavage of 0.71. A62G A117U U122A showed a self-cleavage of 1.54. A62C A67G U102C A110G U139G gave a self-cleavage of 0.13. In the case of A62U A64G A114G, the self-cleavage is reported as 0.21. For A60G U103C A114G, the self-cleavage was 0.37. For A64G U70C G84U, the self-cleavage was 0.47. A66G A69G C85U gave a self-cleavage of 1.42. Variant A63G A67U U103C has a self-cleavage of 0.38. With C61U A78U A95G A96C the self-cleavage was 0.14. For A63U A67U C105U U120C U132C, the self-cleavage was 0.04. Variant A66G U103C A110G has a self-cleavage of 0.14. A66G A69G A91G U132C showed a self-cleavage of 1.19. In the case of A67G A68G A118G, the self-cleavage is reported as 0.59. Work on A62G U108C A134U yielded a self-cleavage of 0. In the case of A63U G106A U131A, the self-cleavage is reported as 0.01. In the case of A67G A69G A92U U120C U122C, the self-cleavage is reported as 0.54. In the case of A63G A68G A82G U87C U131C, the self-cleavage is reported as 0.2. Work on A62U A89G A111G U127C yielded a self-cleavage of 0.01. Work on A60G A69U A82G U87C U108C A114G yielded a self-cleavage of 0.02. For A63G A89U U100A, the self-cleavage was 2.48. Work on A62G A64G U70A yielded a self-cleavage of 0.59. Variant A60U A62G U122C has a self-cleavage of 0.49. For A64G C105G A116U, the self-cleavage was 0. Work on A67G A68G C81U yielded a self-cleavage of 0.2. In the case of A62U A66G A95G, the self-cleavage is reported as 1.89. G65A A86G U130C gave a self-cleavage of 1.06. Variant A62U A96G U139A has a self-cleavage of 1.62. A64G A68G A98G U100C A129U gave a self-cleavage of 1.99. In the case of A63G G93A U100C A118G, the self-cleavage is reported as 1.59. For A63G A68U U70C U108C U130C, the self-cleavage was 0.01. Variant A63U A117G U131C has a self-cleavage of 1.64. A62G A110U U127C gave a self-cleavage of 0.86. A60G C101A A111U showed a self-cleavage of 0. Work on A66G U103C A125G yielded a self-cleavage of 0.25. For A63G C76U A95G, the self-cleavage was 0.03. Work on A62G A92G U124A yielded a self-cleavage of 1.34. A67G A78U U103A A110G A117G gave a self-cleavage of 0.04. For A62G A86C U100C, the self-cleavage was 2.28. In the case of A63G A67G U70C U108C U132C, the self-cleavage is reported as 0.02. A60G U100C A135G showed a self-cleavage of 2.41. In the case of C61U A116G U120C U122C, the self-cleavage is reported as 0.27. A67G A86G A114G showed a self-cleavage of 0.26. Variant A64G A69G U139C has a self-cleavage of 0.77. A60G A64G U72C U97G showed a self-cleavage of 0.18. In the case of A63G A129G A134G, the self-cleavage is reported as 1.35. For A62U U122C A135G, the self-cleavage was 1.2. A64U U100C A114U showed a self-cleavage of 0.12. In the case of A64G A69G A94G A96G U108C A114U, the self-cleavage is reported as 0.01. For A64G A111G U124C, the self-cleavage was 0. In the case of A64G A90G A92G A116G, the self-cleavage is reported as 0.34. Work on A66G A69G U122C G137A yielded a self-cleavage of 1.07. Variant A66G A96G U97A has a self-cleavage of 1.99. A63U A64G C88G U127C gave a self-cleavage of 0.84. In the case of A67G A92G A114G, the self-cleavage is reported as 0.19. In the case of A60U A63G A64U A91G A95G, the self-cleavage is reported as 2.13. Work on A63G A95U A117G A118G yielded a self-cleavage of 2.04. Variant A60U U97C U102A U132C has a self-cleavage of 0.94. For A62G A63G A86G, the self-cleavage was 0.88. With A63G A89G A91G U132A the self-cleavage was 1.25. Variant A60G A67G A89U U103C U108A U120C has a self-cleavage of 0.01. A63G U72C U100C U103G U122A showed a self-cleavage of 0.01. Work on A60U A95G U108A yielded a self-cleavage of 0.01. A60U A92G U127C gave a self-cleavage of 1.26. A60G A66U A69G showed a self-cleavage of 0.9. Work on A64C A86C A89G yielded a self-cleavage of 0.34. With A63G A78G A116G the self-cleavage was 0.09. For A62G A63G U132A, the self-cleavage was 1.85. With A67G A91G C107U U132C the self-cleavage was 0.01.
